# The list shows a part of the results.
# Target: T1, OsWOX13 (Oryza sativa, UniProt Q5QMM3 1-267)
# T1 sequence: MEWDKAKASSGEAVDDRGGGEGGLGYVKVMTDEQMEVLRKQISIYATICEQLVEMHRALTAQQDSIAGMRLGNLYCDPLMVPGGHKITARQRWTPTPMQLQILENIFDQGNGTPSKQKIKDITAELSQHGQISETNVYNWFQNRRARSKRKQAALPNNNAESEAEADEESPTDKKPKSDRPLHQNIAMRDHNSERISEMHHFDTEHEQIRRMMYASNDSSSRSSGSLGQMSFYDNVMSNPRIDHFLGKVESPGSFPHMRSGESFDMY
# Assay: protein-binding microarray (RPBM); PBS, 2% BSA, 51.3 ng/ul salmon testes DNA, 50 uM zinc acetate, 200 nM TF, 25 C, 1 h; high values mean tight binding
# Settings: protein: recombinant; tags: N-terminal polyhistidine and DsRed monomer fusion (pET32a); label: CyDye5-dUTP incorporated in the synthesized complementary strand; 3' TTTTT single-stranded linker to array surface; dsDNA, one strand shown
# Outline: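 Using Ni–NTA, transcription factors fused N-terminally to polyhistidine and DsRed were purified after expression in E. coli BL21-CodonPlus. These were incubated at 200 nM with a blocked, double-stranded custom Agilent array for 1 h at 25 °C in a buffer containing 50 µM zinc acetate, and the array was washed. The binding signal is per-feature fluorescence intensity (arbitrary units) on an Axon 4000B scanner.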
row,Sequence,binding signal
1,TACTTAATTTCTTTTAAATTGGTTCATATGTGTTTAGTTGCGGAGTCACCTAGTGCAG,49300 fluorescence intensity (a.u.)
2,AGGCGATTGATATTATCGTTGAACGCTTGGAGAAGGAGTCCGGAGTCACCTAGTGCAG,29900 fluorescence intensity (a.u.)
3,TCCAGTCAATCAAACGCGTCGACGAACCCAGTCAATACAACGGAGTCACCTAGTGCAG,26800 fluorescence intensity (a.u.)
4,CACTAATTTCTAGGGCTTGTTTTATCGCCAATAAGTGTAACGGAGTCACCTAGTGCAG,6120 fluorescence intensity (a.u.)
5,GCAGGTAATTGGGAGGGAATTCCTCCTTTACTTTGTCTAACGGAGTCACCTAGTGCAG,22100 fluorescence intensity (a.u.)
6,TGGTAATTGAATACGTAAGCCGAACACTATGCTTCTAATACGGAGTCACCTAGTGCAG,25000 fluorescence intensity (a.u.)
7,AGCAATTAGACAAAGGACTTGATCTGGACTTATATCTAACCGGAGTCACCTAGTGCAG,3840 fluorescence intensity (a.u.)
8,TATTTTGCTTAAATGGCTGATTAGTCAAAGCATTTGGCCACGGAGTCACCTAGTGCAG,4720 fluorescence intensity (a.u.)
9,ATGATAGCAATCAGTTAGACTAACACCCCAACCAAACCCCCGGAGTCACCTAGTGCAG,36100 fluorescence intensity (a.u.)
10,TTTGATGACTATCATGTCCTACTACGGTATGCAAATTTGTCGGAGTCACCTAGTGCAG,7080 fluorescence intensity (a.u.)
11,ATTAATCGCAAATTATGAGCCACCAAACCCACTGACTCAACGGAGTCACCTAGTGCAG,8510 fluorescence intensity (a.u.)
12,ATAAATTGAAGCCTACAGCTGCGTATGTTCAGTACGAGCTCGGAGTCACCTAGTGCAG,29100 fluorescence intensity (a.u.)
13,GCCCATGAGTACTAATCAATTTCTACATGCAACTAGGAGCCGGAGTCACCTAGTGCAG,7760 fluorescence intensity (a.u.)
14,CGAAATGGAAGAGATTGAAGATACATGCATGCATGAATCGCGGAGTCACCTAGTGCAG,15700 fluorescence intensity (a.u.)
15,TCATAATTAATTAGAAGTGGCTGCATGTGAGAATGTTTGGCGGAGTCACCTAGTGCAG,53800 fluorescence intensity (a.u.)
16,GTTGATTTCCTGAACTAACCTGTCAAATAAAATATTCCCACGGAGTCACCTAGTGCAG,15900 fluorescence intensity (a.u.)
17,TAGTACACATTAATAATTAATAAATCAGGAACGAAATCTTCGGAGTCACCTAGTGCAG,11000 fluorescence intensity (a.u.)
18,TTGGGAATTGAAATGCCATTTCCCAAGGATTGAAATGGTGCGGAGTCACCTAGTGCAG,4280 fluorescence intensity (a.u.)
19,TGGTCATGATTGGTTCAATTTTCTGTTAGCAAGCTACATGCGGAGTCACCTAGTGCAG,42900 fluorescence intensity (a.u.)
20,AATATTTGTCATTAACTGATCCTGTTGCAAACAATGAATTCGGAGTCACCTAGTGCAG,4570 fluorescence intensity (a.u.)
21,GCTGATTGCTTCTCAAATTAATTAATTAATGTTGGTAGAACGGAGTCACCTAGTGCAG,41500 fluorescence intensity (a.u.)

row,Sequence,binding signal
1,CCTATGATTTGGAAATCTTGTAAACCGAATAAGCCCTAAGCGGAGTCACCTAGTGCAG,27600 fluorescence intensity (a.u.)
2,ATCGCCCACAATTTTCAATTATTATACAGGAAGAAGAAAACGGAGTCACCTAGTGCAG,3240 fluorescence intensity (a.u.)
3,ATTTCAATCAATCAATTTCTGTTGTTATAATCTAATAGACCGGAGTCACCTAGTGCAG,30400 fluorescence intensity (a.u.)
4,AGAATTGAACTAATTTTGAGGAAGATGTTGTAAAAGGAGGCGGAGTCACCTAGTGCAG,6920 fluorescence intensity (a.u.)
5,TGTTATTGACATGCATGCAATAGAACGAGCCGTTCACCGCCGGAGTCACCTAGTGCAG,9140 fluorescence intensity (a.u.)
6,GTTTGGATTGATTATTGGGACAGTGAAATTGACCATTTGACGGAGTCACCTAGTGCAG,39600 fluorescence intensity (a.u.)
7,CTCTTGGTTAACTTCTTCTGTGATTTGTCTAGATGAATTTCGGAGTCACCTAGTGCAG,7670 fluorescence intensity (a.u.)
8,AATCGACTGATTTGATCGGATACTAAGCAGAACAACGTAACGGAGTCACCTAGTGCAG,8790 fluorescence intensity (a.u.)
9,AGTGACAGGACCTAATTACAGCAGTATAGTATTAATTAATCGGAGTCACCTAGTGCAG,25500 fluorescence intensity (a.u.)
10,AACATCGCAATTAAGATCCAGTTAATCTCATTTAGTTACTCGGAGTCACCTAGTGCAG,9150 fluorescence intensity (a.u.)
11,TTCTTGATGATTCGCATTTTCTCGTTTCTTTCGCGTGAACCGGAGTCACCTAGTGCAG,5840 fluorescence intensity (a.u.)
12,ATTTAATTATAGCAAATTTTGCTACGCTACTTCGTGGTTCCGGAGTCACCTAGTGCAG,19700 fluorescence intensity (a.u.)
13,TGTAAATAGATACTAATATATATATTTACCTATTAGTTTACGGAGTCACCTAGTGCAG,5020 fluorescence intensity (a.u.)
14,ATATGATTAAGCTATGATCCTTTCCTTTATTAGCTCAGCACGGAGTCACCTAGTGCAG,14000 fluorescence intensity (a.u.)
15,TCACTGTAATTTTGGTATAATTTAATAACTAAATTTGGTACGGAGTCACCTAGTGCAG,25700 fluorescence intensity (a.u.)
16,TTAAATTGAAGGTTGAAAATTAAAATTTTGGCTGATAAGTCGGAGTCACCTAGTGCAG,22200 fluorescence intensity (a.u.)
17,ATTGGTCCATTAGCACGTGATTAATTAAGTATTTGCTATTCGGAGTCACCTAGTGCAG,11200 fluorescence intensity (a.u.)
18,TGCCATGATTGAGTTGTATGACAATAAGATTACATATGATCGGAGTCACCTAGTGCAG,33500 fluorescence intensity (a.u.)
19,TATAATTAGATCGATCGATCGATCCCTTGTGAGGAGTGGGCGGAGTCACCTAGTGCAG,20100 fluorescence intensity (a.u.)
20,ATTGTCAAATCATATAGCAATTAGGCTTAAAAGATTCGTACGGAGTCACCTAGTGCAG,10300 fluorescence intensity (a.u.)
21,CCTAAACATTATTAATGAGAAAAGTTTGTTCGTCGCGGTCCGGAGTCACCTAGTGCAG,10900 fluorescence intensity (a.u.)

row,Sequence,binding signal
1,TTAATTAAATTAAATCAAACACTATATAAATGCACTATTTCGGAGTCACCTAGTGCAG,29900 fluorescence intensity (a.u.)
2,GCGCCTTTCAATTTGCAATTATTTCTCTTGCCTATGTTTTCGGAGTCACCTAGTGCAG,10900 fluorescence intensity (a.u.)
3,GCTGGTTTGATTAGATCTTCATCCCACGTGGCATTGACGTCGGAGTCACCTAGTGCAG,17200 fluorescence intensity (a.u.)
4,TGGTGATATCAATAGGATTGGAAGAGATTTGTCAGCCTATCGGAGTCACCTAGTGCAG,7200 fluorescence intensity (a.u.)
5,CCGTTCAATAACAGATTCAGCGACGACAATTCACCGAAGGCGGAGTCACCTAGTGCAG,4440 fluorescence intensity (a.u.)
6,TTATACGGTTTAATTAAGGTGAAATTCACTGTGAGAATTTCGGAGTCACCTAGTGCAG,4240 fluorescence intensity (a.u.)
7,TAGAAATTATGAACCAAAATTATTTATTTATTGTGTTCAACGGAGTCACCTAGTGCAG,4490 fluorescence intensity (a.u.)
8,ACTAACAGTAATAAATTAATGGCGCACGTTGTTTCAAAGACGGAGTCACCTAGTGCAG,8720 fluorescence intensity (a.u.)
9,GTAGTGCGTAATTGCGTATGTCCAGCCCTGCTCATCAGTTCGGAGTCACCTAGTGCAG,3380 fluorescence intensity (a.u.)
10,CAAATTAGTTCCAGTAAATTTAACATTGAACGTATTTTAACGGAGTCACCTAGTGCAG,4010 fluorescence intensity (a.u.)
11,GGTGATTTGGGATCTAGATGATACATTATGATAAGTTATGCGGAGTCACCTAGTGCAG,20300 fluorescence intensity (a.u.)
12,AGTACTCATAATTTCCATTAATTAAGACTCATTTAATTAGCGGAGTCACCTAGTGCAG,28000 fluorescence intensity (a.u.)
13,TTGAAAACTATATAATTAGAAACACGAGGATGATAAGGTTCGGAGTCACCTAGTGCAG,5060 fluorescence intensity (a.u.)
14,CTAAAATAAACCATACTAAATTTTGACAATACCAAGACTTCGGAGTCACCTAGTGCAG,4640 fluorescence intensity (a.u.)
15,GTAAGAGTACTTAAATAGATTGACACATGAAGATACATGACGGAGTCACCTAGTGCAG,6730 fluorescence intensity (a.u.)
16,ATTTGATTAATGTCTTGTATGATATGGTCGACAGTGAGGACGGAGTCACCTAGTGCAG,41800 fluorescence intensity (a.u.)
17,ACCAATAATTAAATTATAAAAGAAGGGAGCATATATATTACGGAGTCACCTAGTGCAG,15700 fluorescence intensity (a.u.)
18,TAATCTAGATTATAATAATCTTAAACTGAAACAAACAGGGCGGAGTCACCTAGTGCAG,10900 fluorescence intensity (a.u.)
19,GGTCTGACTGATTGCGTCGTGTAACAAACATTATATTCTTCGGAGTCACCTAGTGCAG,34700 fluorescence intensity (a.u.)
20,ATTGAATTGTTTCCTTGTTTATCAATTCAAATTTGAAGTTCGGAGTCACCTAGTGCAG,3270 fluorescence intensity (a.u.)
21,CCTAATGAATCTTAGGTAATTAAGCAGCGTAAGCTCTACTCGGAGTCACCTAGTGCAG,6980 fluorescence intensity (a.u.)

row,Sequence,binding signal
1,ATTAAATCTCGCTCTTAATTGCGAAGCTTACTCCATTGACCGGAGTCACCTAGTGCAG,12600 fluorescence intensity (a.u.)
2,GCCTAATTACACCATGATTAGACAACGTAGTGTTACATTACGGAGTCACCTAGTGCAG,41400 fluorescence intensity (a.u.)
3,TTTTATAATTTATATATGGTCAACACACGAAATTGAATGTCGGAGTCACCTAGTGCAG,15100 fluorescence intensity (a.u.)
4,TTACAAAATTAATTTATATACTTAATAGGGACTTGGCCACCGGAGTCACCTAGTGCAG,29100 fluorescence intensity (a.u.)
5,TCAGTGAGGATATTAATTGAACTCCCATTGCCAACACCCCCGGAGTCACCTAGTGCAG,6400 fluorescence intensity (a.u.)
6,TGTGGAAGATTATGATTAATTGAAAAGATAATGTACGTGCCGGAGTCACCTAGTGCAG,51900 fluorescence intensity (a.u.)
7,CTATAAAATTATGTAGCTCTGTGATGGAAAGCTTGAAGGACGGAGTCACCTAGTGCAG,3520 fluorescence intensity (a.u.)
8,AATATTGACATGAAATTATATTAACGTTAGTCAAATATAACGGAGTCACCTAGTGCAG,8910 fluorescence intensity (a.u.)
9,AGCTAATTAAGAATAAGTTATAACTAGACCAATAATCAAGCGGAGTCACCTAGTGCAG,20200 fluorescence intensity (a.u.)
10,TGGGCTCACCTGATTGGGCCCACACTGCAACGGAGAGCCCCGGAGTCACCTAGTGCAG,6410 fluorescence intensity (a.u.)
11,AAACCGTTGATTGGATTGACATTGACTTTGCTCTTAAATCCGGAGTCACCTAGTGCAG,30200 fluorescence intensity (a.u.)
12,ATTTGATGATCACACACTCATGTATGCATGTTATTAGTATCGGAGTCACCTAGTGCAG,3710 fluorescence intensity (a.u.)
13,AATCTATCATTAGCACATGTGGGTTACTGTAGCACTATGGCGGAGTCACCTAGTGCAG,3740 fluorescence intensity (a.u.)
14,GGTTGTGATTGGTTGAGAAGTGGAGGTAGCTGAGAAAATTCGGAGTCACCTAGTGCAG,32200 fluorescence intensity (a.u.)
15,TTTTAATTATTGCTCTAGGTATATATGAACTAATAATGCTCGGAGTCACCTAGTGCAG,19400 fluorescence intensity (a.u.)
16,GGTGAGAATGATTGAAGAAAGTATGTGATTGGTTGAAAAGCGGAGTCACCTAGTGCAG,39400 fluorescence intensity (a.u.)
17,GAGATGACCTAAACGATCATAATTAGGCGGTGTTGAGTTGCGGAGTCACCTAGTGCAG,3620 fluorescence intensity (a.u.)
18,AGAGATTGAGAGTGCTAGCTGATGCTACAGGCCTACAGCCCGGAGTCACCTAGTGCAG,17400 fluorescence intensity (a.u.)
19,CTATAAATAAGCCCATTAATTTGTCCCAAGCAAAGCAAGCCGGAGTCACCTAGTGCAG,7020 fluorescence intensity (a.u.)
20,TTGTGAATGAAATTATGAAACAGAAGATTGTGATCTATTTCGGAGTCACCTAGTGCAG,7850 fluorescence intensity (a.u.)
21,GTTGCCGTCGTCCTATCAATCACTTGGCCGGTCACAGACCCGGAGTCACCTAGTGCAG,9060 fluorescence intensity (a.u.)

# Reference: PMC7819943, “Rice protein-binding microarrays: a tool to detect cis-acting elements near promoter regions in rice”
